In experiment [1] the target is T1, GST-Galla1-C (Drosophila) (UniProt Q9V968).
T1 sequence: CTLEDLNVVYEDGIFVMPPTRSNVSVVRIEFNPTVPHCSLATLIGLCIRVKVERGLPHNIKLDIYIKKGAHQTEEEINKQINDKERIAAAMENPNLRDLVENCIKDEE
The experiment is described as follows: pull-down; in vitro GST pull-down of GST and MBP fusion proteins from bacterial cell lysates; 20 mM Tris pH 7.5, 150 mM NaCl, 0.5 mM EDTA, 10% glycerol, 0.1% Triton-X100, 1 mM DTT, protease inhibitor cocktail; blots with anti-MBP and anti-GST.

In experiment [2] the target is T2, GST-Galla1-N (Drosophila) (UniProt Q9V968).
T2 sequence: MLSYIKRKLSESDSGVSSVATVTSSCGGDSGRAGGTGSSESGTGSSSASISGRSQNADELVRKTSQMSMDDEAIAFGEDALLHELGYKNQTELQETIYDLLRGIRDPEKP
The description is as above.

The target of another experiment is T3, Galla1 (Drosophila) (UniProt Q9V968).
T3 sequence: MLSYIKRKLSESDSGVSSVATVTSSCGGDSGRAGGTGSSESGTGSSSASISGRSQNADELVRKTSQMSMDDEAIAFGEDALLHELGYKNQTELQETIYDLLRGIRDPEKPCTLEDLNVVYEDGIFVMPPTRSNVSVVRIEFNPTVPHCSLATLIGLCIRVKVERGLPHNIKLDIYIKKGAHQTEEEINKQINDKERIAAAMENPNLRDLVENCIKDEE
The experiment is described as above.

The next experiment deals with T4, Flag-Xpd (Drosophila) (UniProt Q7KVP9).
T4 sequence: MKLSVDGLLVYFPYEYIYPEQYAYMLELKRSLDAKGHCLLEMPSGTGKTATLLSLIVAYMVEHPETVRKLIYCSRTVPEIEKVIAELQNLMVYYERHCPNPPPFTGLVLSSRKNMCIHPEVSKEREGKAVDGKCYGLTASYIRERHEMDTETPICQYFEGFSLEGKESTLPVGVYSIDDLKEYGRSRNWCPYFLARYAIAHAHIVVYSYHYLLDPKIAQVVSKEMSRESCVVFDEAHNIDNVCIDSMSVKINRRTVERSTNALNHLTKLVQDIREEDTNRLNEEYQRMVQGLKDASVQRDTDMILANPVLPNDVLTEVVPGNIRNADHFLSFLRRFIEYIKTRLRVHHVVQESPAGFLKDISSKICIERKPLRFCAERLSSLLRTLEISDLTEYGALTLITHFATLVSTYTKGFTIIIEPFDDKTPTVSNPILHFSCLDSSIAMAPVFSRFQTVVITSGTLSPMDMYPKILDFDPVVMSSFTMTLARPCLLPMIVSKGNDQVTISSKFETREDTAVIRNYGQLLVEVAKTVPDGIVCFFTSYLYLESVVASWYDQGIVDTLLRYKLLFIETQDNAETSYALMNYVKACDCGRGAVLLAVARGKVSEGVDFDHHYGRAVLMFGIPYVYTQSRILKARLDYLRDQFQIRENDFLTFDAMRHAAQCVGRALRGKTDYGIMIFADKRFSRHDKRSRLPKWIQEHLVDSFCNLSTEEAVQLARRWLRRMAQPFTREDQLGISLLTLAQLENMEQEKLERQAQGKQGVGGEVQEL
The experiment is described as follows: co-IP; transfected Drosophila S2 cells lysed in 0.1% CHAPS buffer; immunoprecipitation with anti-Myc or anti-Flag on protein G-sepharose overnight at 4 °C; blot with anti-Flag or anti-V5.

For a further experiment, the target named is T5, Myc-Galla1 (Drosophila) (UniProt Q9V968).
T5 sequence: T3 sequence
The description is as above.

The target in another experiment is T6, GST-Ciao1 (Drosophila) (UniProt Q7K1Y4).
T6 sequence: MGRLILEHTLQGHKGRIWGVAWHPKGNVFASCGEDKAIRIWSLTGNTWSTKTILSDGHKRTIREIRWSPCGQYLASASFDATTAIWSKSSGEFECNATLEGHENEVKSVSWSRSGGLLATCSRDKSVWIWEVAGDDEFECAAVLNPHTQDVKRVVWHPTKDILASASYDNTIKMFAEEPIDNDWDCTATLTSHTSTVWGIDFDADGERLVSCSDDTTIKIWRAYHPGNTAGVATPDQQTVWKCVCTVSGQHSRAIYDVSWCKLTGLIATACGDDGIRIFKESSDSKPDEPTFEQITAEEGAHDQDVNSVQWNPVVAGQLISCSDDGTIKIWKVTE
The experiment is described as follows: pull-down; in vitro GST pull-down of GST and MBP fusion proteins from bacterial cell lysates; 20 mM Tris pH 7.5, 150 mM NaCl, 0.5 mM EDTA, 10% glycerol, 0.1% Triton-X100, 1 mM DTT, protease inhibitor cocktail; blots with anti-MBP and anti-GST.

The record followed here is paper PMC7220951.

No constants are given. Whether binding was seen depends on the method and setting. In cells and extracts the contact can be indirect. Some results given as binding are weak or reduced against the parent protein; the word gives no strength. Tags and fused reporters may be left off the sequences shown.

B1: MBP-Ciao1 (protein, UniProt Q7K1Y4 1-335)
chain: T6 sequence
B1: the binding entry is listed as “binds” in experiment [1], “no binding” in experiment [2] and “binds” with Galla1 (Drosophila).

B2: V5-Ciao1 (protein, UniProt Q7K1Y4 1-335)
chain: T6 sequence
As for B2, the binding result with Flag-Xpd (Drosophila) and with Myc-Galla1 (Drosophila) was “binds” throughout.

B3: MBP-Xpd (protein, UniProt Q7KVP9 1-769)
chain: T4 sequence
With B3, in the experiment with GST-Ciao1 (Drosophila), the binding entry was “binds”.
